{"source": "ChEMBL document CHEMBL4888484", "about": "“Replenishing the malaria drug discovery pipeline: Screening and hit evaluation of the MMV Hit Generation Library 1 (HGL1) against asexual blood stage Plasmodium falciparum ,using a nano luciferase reporter read-out” (2022)", "note": "In all, about 150,000 compounds went through this assay and about 540 (0.36%) showed an effect of 50% or more. This is one part of the list.", "data": [{"tested_on": "Plasmodium falciparum", "experiment": "Primary screen in NF54 nanoGlo assay, in single point, at 2uM, 72h; a lower Z score goes with more inhibition", "format": "functional, Erythrocyte", "details": "timepoint 72 hour", "units": {"% Inhibition": "%"}, "values": [{"smiles": "COc1ccc2c(c1)N(C(=O)NC1CCCCC1)C(C)(C)C[C@@H]2C", "% Inhibition": -4, "Z score": 0.44}, {"smiles": "O=C(NCc1nncn1-c1ccc(F)cc1)c1cccnc1O[C@H]1CCOC1", "% Inhibition": 8, "Z score": -1.43}, {"smiles": "CO[C@@H](CN=C(N)N1CCCCCC1)C(C)C", "% Inhibition": -7, "Z score": 0.89}, {"smiles": "Cc1cn2nc(NC3CC(C)n4ccnc43)sc2n1", "note": "(stereo not given)", "% Inhibition": 0, "Z score": -0.03}, {"smiles": "CC[C@H](C)[C@@H]1NC(=O)N(C2CC(c3ccccc3)C2)C1=O", "note": "(stereo not given in full)", "% Inhibition": -5, "Z score": 0.88}, {"smiles": "CC(C(O)c1ccc2ccccc2c1)N1CCCCC1", "note": "(stereo not given)", "% Inhibition": -1, "Z score": 0.26}, {"smiles": "CC1(C)CN(C(=O)c2ccc(S(C)(=O)=O)cc2)[C@@H]1c1ccccc1", "% Inhibition": -4, "Z score": 0.65}, {"smiles": "Cc1cc(C)cc(OCC(=O)N2CCCC[C@@H]2CCN2CCCCC2)c1", "% Inhibition": -10, "Z score": 1.37}, {"smiles": "Fc1ccc(-c2ccc(Cn3ccnc3)cn2)c(Cl)c1", "% Inhibition": -7, "Z score": 1}, {"smiles": "C[C@@H](NC(=O)Nc1ccn(Cc2ccncc2)n1)C1CC1", "% Inhibition": -7, "Z score": 1.44}, {"smiles": "O=C(C1CCC1)N1CCC(CCCc2ccccc2)(C(=O)O)CC1", "% Inhibition": -8, "Z score": 0.77}, {"smiles": "Cc1ccccc1OCC(=O)Nc1cc(N)cc(Oc2ccccc2)c1", "% Inhibition": -1, "Z score": 0.22}, {"smiles": "O=C(c1cc2n(n1)CCCO2)N1CC[C@H](Oc2cccnn2)C1", "% Inhibition": -7, "Z score": 0.8}, {"smiles": "Cc1[nH]c2ccccc2c1C1CCN(C(=O)C2CC3CCC2O3)CC1", "note": "(stereo not given)", "% Inhibition": 8, "Z score": -1.24}, {"smiles": "COc1ccc(-c2cc(C(=O)N3CCN(c4ccc(F)cc4)CC3)on2)cc1OC", "% Inhibition": -1, "Z score": 0.09}, {"smiles": "CCOC(=O)c1c(S(=O)(=O)N2CCC[C@H](C(=O)Nc3ccccc3OC)C2)c(C)n(CC)c1C", "% Inhibition": 8, "Z score": -1.6}, {"smiles": "CCOC(Cn1cc(C(=O)NCCc2cccc(Cl)c2)nn1)OCC", "% Inhibition": -26, "Z score": 3.09}, {"smiles": "CCCCn1c(N)c(N(C(=O)Cc2c(Cl)cccc2Cl)C2CCCC2)c(=O)[nH]c1=O", "% Inhibition": -1, "Z score": 0.1}, {"smiles": "Cc1nc(C(=O)NC2(c3noc([C@H]4CCOC4)n3)CCCCCC2)c[nH]1", "% Inhibition": -9, "Z score": 0.88}, {"smiles": "CCCC1CCC(OC(=O)c2ccc(C(=O)OC3CCC(CCC)CC3)nc2)CC1", "note": "(stereo not given)", "% Inhibition": 74, "Z score": -10.02}, {"smiles": "CCCCCc1ccc(C(=O)N2CCCN(c3nc4ccccc4nc3-c3ccccc3)CC2)cc1", "% Inhibition": -7, "Z score": 0.67}, {"smiles": "COc1cccc(CN2C[C@@H]3Oc4ncccc4C(=O)N(C)[C@@H]3C2)c1", "% Inhibition": 0, "Z score": 0}, {"smiles": "COc1nc2c(cc1CNc1cc(C(C)C)nc(C)n1)C(=O)N(C1CCCC1)C2", "% Inhibition": -13, "Z score": 1.78}, {"smiles": "NC(=O)[C@@H]1COCCN1Cc1csc(-c2ccccn2)n1", "% Inhibition": -12, "Z score": 2.14}, {"smiles": "CCn1ncnc1CN1CC[C@H](CNC(=O)C2CCCCC2)C1", "% Inhibition": -14, "Z score": 1.82}, {"smiles": "O=C(NCc1nccnc1-c1ccsc1)c1cscn1", "% Inhibition": 7, "Z score": -0.87}, {"smiles": "C[C@H]1CCC(C)(C)N1C(=O)c1ccnc(N(C)C)c1", "% Inhibition": 29, "Z score": -3.31}, {"smiles": "Cc1cccc2ncnc(N(C)C3CC[S+]([O-])CC3)c12", "note": "(stereo not given)", "% Inhibition": 3, "Z score": -0.52}, {"smiles": "O=C(NCc1nc(-c2ccco2)n[nH]1)c1c[nH]nc1-c1ccccc1", "% Inhibition": -16, "Z score": 3.04}, {"smiles": "Cc1ccc(C(=O)c2ccccc2C(=O)NCCN2CCOCC2)cc1C", "% Inhibition": -6, "Z score": 0.86}, {"smiles": "O=C(Cc1n[nH]c(=O)c2ccccc12)Nc1ccc(OC2CCCC2)c(Cl)c1", "% Inhibition": -4, "Z score": 0.56}, {"smiles": "CC(=O)Nc1ccc([C@H]2NC(=O)c3ccccc3O2)cc1", "% Inhibition": -1, "Z score": 0.16}, {"smiles": "C[C@@H](CS(C)(=O)=O)NC(=O)C1CCCCCC1", "% Inhibition": -9, "Z score": 1.18}, {"smiles": "CCCN1C[C@@H](CNC(=O)c2nc(C)[nH]c2C)CC1=O", "% Inhibition": 4, "Z score": -0.52}, {"smiles": "O=S1(=O)CCN(Cc2ccccn2)CC1", "% Inhibition": 30, "Z score": -3.93}, {"smiles": "Cc1nc(C(C)C)oc1C(=O)N1CCOCc2ccccc21", "% Inhibition": 8, "Z score": -1.01}, {"smiles": "c1ccc(C(OCCNC2=NCCN2)c2ccccc2)cc1", "% Inhibition": -28, "Z score": 3.26}, {"smiles": "C[C@@H]1CN(C(=O)c2coc(COc3cccc(F)c3)n2)C[C@H](C)O1", "% Inhibition": -8, "Z score": 1.06}, {"smiles": "COc1cc(NC(=O)c2ccc(-c3ccccc3)cc2)c(OC)cc1NC(=O)c1ccccc1", "% Inhibition": 6, "Z score": -0.73}, {"smiles": "Cc1onc(C2CC2)c1C(=O)N1C[C@@H](C)N(CCO)[C@@H](C)C1", "% Inhibition": 3, "Z score": -0.38}, {"smiles": "CCc1[nH]ccc1C(=O)N[C@H](c1cccs1)C1(CO)CCC1", "% Inhibition": -14, "Z score": 1.73}, {"smiles": "COCCOc1ccc(C(=O)N[C@@H]2CN(C(=O)Nc3ccccc3C(=O)OC)CCC[C@H]2O)cc1", "% Inhibition": 24, "Z score": -2.67}, {"smiles": "CC(C)[C@@H](C(=O)N1CC2(CNC(=O)O2)C1)c1cccc(Cl)c1", "% Inhibition": -9, "Z score": 1.17}, {"smiles": "O=C1CN(c2ccc(CNC(=O)c3ccc(Br)cc3)cc2)CCN1", "% Inhibition": -8, "Z score": 1.5}, {"smiles": "O=C(O)Cc1ccccc1NC(=O)c1cc2c(s1)CCOC2", "% Inhibition": -6, "Z score": 0.99}, {"smiles": "CCC1=NO[C@@H](CN(C)CCc2ccccn2)C1", "% Inhibition": -1, "Z score": 0.12}, {"smiles": "CN(c1ccc(Cl)c(C(=O)Nc2cccnc2)c1)S(C)(=O)=O", "% Inhibition": -2, "Z score": 0.31}, {"smiles": "C[C@]1(F)CCCN(c2nnc(Cc3ccccc3)o2)C1", "% Inhibition": -4, "Z score": 0.72}, {"smiles": "Cc1ccnc(N2CC[C@H]3[C@H](CCC(=O)N3CCCn3ccnc3)C2)n1", "% Inhibition": 3, "Z score": -0.49}, {"smiles": "O[C@H](COc1ccccc1-c1ccc(Cl)c(F)c1)CN1CCOCC1", "% Inhibition": -10, "Z score": 1.67}, {"smiles": "CN(C)c1ccccc1NC(=O)N[C@H]1CCS(=O)(=O)C1", "% Inhibition": -11, "Z score": 1.66}, {"smiles": "O=C(NCCOc1cccnc1)c1ncccc1Br", "% Inhibition": -19, "Z score": 1.69}, {"smiles": "C[C@@H](CCc1ccccc1)NC(=O)c1cnn2c(-c3ccc(Cl)s3)ccnc12", "% Inhibition": -1, "Z score": 0.13}, {"smiles": "CCc1nnc(NCC2(N(C)C)CCCC2)s1", "% Inhibition": -4, "Z score": 0.57}, {"smiles": "O=C(O)c1ccc(NC(=O)c2cccc(N3C(=O)C4C5CCC(C5)C4C3=O)c2)cc1", "note": "(stereo not given)", "% Inhibition": 5, "Z score": -0.98}, {"smiles": "CCO[C@H]1CN(C)C[C@@H]1NC1Cc2ccccc2C1", "% Inhibition": 11, "Z score": -1.44}, {"smiles": "Cc1ccc(-c2nc(NC(=O)c3ccccc3F)sc2NC(=O)c2ccco2)cc1", "% Inhibition": -19, "Z score": 2.6}, {"smiles": "CN(C)c1nc(N2CCC(c3cc[nH]n3)CC2)ncc1F", "% Inhibition": -10, "Z score": 1.31}, {"smiles": "Nc1ncc(C(=O)NC[C@H]2CC23CCCCC3)s1", "% Inhibition": -6, "Z score": 1.21}, {"smiles": "CC(C)Oc1ccc(NS(=O)(=O)CCCC(F)(F)F)c(F)c1", "% Inhibition": -17, "Z score": 1.74}, {"smiles": "CCc1ocnc1C(=O)NC1CCN(c2nccn2C)CC1", "% Inhibition": 11, "Z score": -1.43}, {"smiles": "COc1cccc(C(=O)OCC(=O)Nc2c(C#N)c(C)c(C)n2-c2ccccc2)c1", "% Inhibition": -9, "Z score": 1.1}, {"smiles": "NC(=O)C1CCCC(NC(=O)CCC2CCCO2)C1", "note": "(stereo not given)", "% Inhibition": -7, "Z score": 0.79}, {"smiles": "O=C1NCCN1CCn1ccnc1-c1ccncc1", "% Inhibition": -13, "Z score": 1.54}, {"smiles": "Cc1cc2c(cc1S(=O)(=O)Nc1cccc(C#N)c1)OCC(=O)N2Cc1noc(C2CC2)n1", "% Inhibition": 2, "Z score": -0.25}, {"smiles": "CCc1sc(NCc2nc(C)cc(C)n2)nc1C", "% Inhibition": 3, "Z score": -0.42}, {"smiles": "Cc1ncc(CN2CCC(NC(=O)c3cn[nH]c3C)C(C)C2)s1", "note": "(stereo not given)", "% Inhibition": 1, "Z score": -0.1}, {"smiles": "Cc1nnc(CN(C)C(=O)[C@@H]2NCCOc3ccccc32)n1C", "% Inhibition": -3, "Z score": 0.51}, {"smiles": "c1sc(C2CC2)nc1Cn1cnc2c1CCNC21CCOCC1", "% Inhibition": 1, "Z score": -0.24}, {"smiles": "O=C(NC1CCC(C(=O)N2CCCO2)CC1)C1CCCC1", "note": "(stereo not given)", "% Inhibition": -14, "Z score": 1.48}, {"smiles": "CCOc1cc(CN2CCC3(CC2)CNC(=O)C3)cc(Cl)c1O", "% Inhibition": 1, "Z score": -0.2}, {"smiles": "O=C(COc1ccccc1F)NC(C1CC1)C1CC1", "% Inhibition": -2, "Z score": 0.22}, {"smiles": "N#Cc1c(N2CCCCC2)ncc2c(=O)c3ccccc3[nH]c12", "% Inhibition": 33, "Z score": -0.75}, {"smiles": "O=C(NCCCN1CCCC1=O)c1ccc2ccccc2n1", "% Inhibition": -18, "Z score": 1.49}, {"smiles": "Cc1ccccc1CNC[C@H]1O[C@@H]2C[C@H](CC(=O)NCc3ccc(F)cc3)O[C@@H]2[C@@H]1O", "% Inhibition": -8, "Z score": 1.38}, {"smiles": "Cc1cccc(NC(=O)CCc2nc(-c3ccc(S(=O)(=O)N4CCCC4)cc3)no2)c1C", "% Inhibition": 0, "Z score": 0.05}, {"smiles": "NC(=O)CCn1cc(CN2CCC[C@H](Cc3cccnc3)C2)c2ccccc21", "% Inhibition": 8, "Z score": -1.09}, {"smiles": "O=C(Nc1nnc(CCCc2ccccc2)s1)c1ccc2c(c1)OCO2", "% Inhibition": -10, "Z score": 1.91}, {"smiles": "CCCNC(=O)c1c(C(F)(F)F)nn(C2CCN(C(C)C)CC2)c1C", "% Inhibition": -4, "Z score": 0.76}, {"smiles": "CC(F)(F)CC(=O)N1CCCC2(CC2)C1", "% Inhibition": 4, "Z score": -0.47}, {"smiles": "COc1ccc(Cl)cc1NC(=O)CN(CC(=O)Nc1ccccc1)Cc1ccco1", "% Inhibition": -9, "Z score": 1.64}, {"smiles": "C[C@@H]1CN(CCCCO)CCN1C(=O)OC(C)(C)C", "% Inhibition": -1, "Z score": 0.08}, {"smiles": "Cc1cc2c(cc1S(=O)(=O)N(C)CC(=O)NC1CCCCCCC1)OCC(=O)N2", "% Inhibition": -4, "Z score": 0.44}, {"smiles": "CN1c2cccnc2CN(CC2CCCCC2)CC[C@H]1CO", "% Inhibition": 28, "Z score": -3.24}, {"smiles": "CC1CN(C(=O)C2CC2c2cccc(F)c2F)CCN1", "note": "(stereo not given)", "% Inhibition": 0, "Z score": -0.05}]}]}
